Measurements reported in the RNAGym collection of RNA variant scans (doi:10.1073/pnas.2313332121).
Variants at the floor of the assay are shown more often than the library holds them.

B1: TPR 5TU (parent)
chain: GGAUCUUCUCGAUCUAACAAAAAAGACAAAUCUGCCACAAAGCUUGAGAGCAUCUUCGGAUGCAGAGGCGGCAGCCUUCGGUGGCGCGAUAGCGCCAACGUUCUCAACUAUGACACGCAAAACGCGUGCUCCGUUGAAUGGAGUUUAUCAUG

Variants of: B1
Test: polymerase ribozyme fitness, log enrichment relative to wild type (log ratio); higher = more active; in vitro selection for triplet polymerase activity
Outline: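 One round of in vitro selection, in triplicate, was applied to PCR-built, transcribed mutant libraries of each subunit of a heterodimeric triplet polymerase ribozyme. The steps were annealing with a biotinylated primer, partner subunit and triplets, incubation frozen at −7 °C, gel excision of extended constructs, streptavidin-bead capture and RT-PCR. Fitness is the logarithm, base 2, of genotype enrichment over wild-type enrichment from inverse-variance-weighted replicate averages of Illumina-sequenced inputs and outputs, keeping genotypes with ≥10 input reads and ≥1 read per output.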

Row | Variant | polymerase ribozyme fitness (log ratio)
1 | A47C C57A G94A U144G | 1.12
2 | G46C G50C C57U C76A G84A C125G | ≤ -4.2
3 | U45A U56A U139A | ≤ -4.2
4 | G46U C57G G70C U78G C87U G88U G143A U144A | ≤ -4.2
5 | G48A U55A C76U G83C | ≤ -4.2
6 | G48A G50A U56G U148C | ≤ -4.2
7 | G46C C85U G88C G140C | ≤ -4.2
8 | G46C U55G G58U | -0.983
9 | G46C G50C U55G C85U C95G A97U G133A | ≤ -4.2
10 | A49C C54U G80C C131G | ≤ -4.2
11 | G46C G48A C87G G88U C105U U135G G143A C149U | ≤ -4.2
12 | G48A G83U A98G G140C | ≤ -4.2
13 | G46C U111C | ≤ -4.2
14 | A47G C51U C87U | -0.414
15 | G46U G48A G50A U53A G92A A121G G143A A150G | ≤ -4.2
16 | G48U C96U G128A | ≤ -4.2
17 | G48U C72G C79U A91U C105U C131A U148A | ≤ -4.2
18 | G48U C116U | -0.65
19 | U45G G50C A122G C129A | ≤ -4.2
20 | A47G G59C G92U C99A C118G | -3.37
21 | G48A U55A U56G G65C G136A U139C G141C | ≤ -4.2
22 | G48A G50U G88C C95G C114U | ≤ -4.2
23 | A47U A64U G81U G92U C99G | ≤ -4.2
24 | A49C C51U G59C C95U C131G | ≤ -4.2

Row | Variant | polymerase ribozyme fitness (log ratio)
25 | A47G G81C G92C C95A A142G | -2.95
26 | A47C C54G C87A | ≤ -4.2
27 | G48U A52G C57G G74C A113U A119C G128A | ≤ -4.2
28 | A47C C63A C87G | ≤ -4.2
29 | G48A C51U | -1.05
30 | G48C C51A C93U | ≤ -4.2
31 | A47G C75G A107U U135A U148C | ≤ -4.2
32 | A47G G50C C57A C72U G81A A91C A97U U127G U134G G152C | ≤ -4.2
33 | G48C C99U | -1.72
34 | G48C C51U G84C U127C C132U | ≤ -4.2
35 | A47C G59C U102G U145A | ≤ -4.2
36 | G46A U90G G94U A107G C131G U146A | ≤ -4.2
37 | G48C G59A A64U C85U C87A A122G A137C | ≤ -4.2
38 | U45G C54G G71U G84C G100A C125A | ≤ -4.2
39 | A47U C79A C95A C103G G143C | ≤ -4.2
40 | U45G C54U A119U U146G | -2.19
41 | G46A A60U C79G G83U U109G C118U A147G | ≤ -4.2
42 | A47C C85G C103G | ≤ -4.2
43 | G46A U61G C76A A89C C93U G100A U144C | ≤ -4.2
44 | A47C C95U | 0.141
45 | G46C C87G U90C | ≤ -4.2
46 | G46C A66C C85U C93G C118U | ≤ -4.2
47 | A47U G68C C85A C95A A106G U134C A150G | ≤ -4.2
48 | A47U U56A C87G A115C G141A | -3.84

Row | Variant | polymerase ribozyme fitness (log ratio)
49 | A47C A64C C108U | ≤ -4.2
50 | G48C A73U U135G | ≤ -4.2
51 | G48U U139A | ≤ -4.2
52 | U45A G59U G74U A121G G141A | ≤ -4.2
53 | G46U G86U G140C U148A | ≤ -4.2
54 | U45A U82G C129A U139A U145G | ≤ -4.2
55 | G48C G92U | -1.69
56 | A47U C57G C87U G88A | ≤ -4.2
57 | G46A G59C C114U A120G A137C | ≤ -4.2
58 | G46A U53A G59A A66C U90C A91U C108G G133C | ≤ -4.2
59 | G48A A52U C75U A91G | ≤ -4.2
60 | A47C U53A A60U C76G C93A C123U | ≤ -4.2
61 | A49C C51U G81A G94C C99U C103U G143U | ≤ -4.2
62 | U45G G136C U139A | ≤ -4.2
63 | A47U G88U A107U C129U | ≤ -4.2
64 | U45G A52G G84U G86U U145G | ≤ -4.2
65 | G48A C76G C87A U90A U146A | ≤ -4.2
66 | G46A C85A A91U G140C | ≤ -4.2
67 | A47C U53A G71A G94A | ≤ -4.2
68 | G46U G84U U90G A98C G126A G136U U144G | ≤ -4.2
69 | G48C G50A U55A | -3.03
70 | G46A U55A G58C G84C | -2.84
71 | G48U U53A C85U | -1.94
72 | U45G G46A C57A A60G A120G G133C G143U | ≤ -4.2

Row | Variant | polymerase ribozyme fitness (log ratio)
73 | A47C U53G C79A C87A C99U G136U | ≤ -4.2
74 | A47U G50A G84U A98U | -3.28
75 | G48A G59A G88C A106G U148C | ≤ -4.2
76 | U45G U55G A91C U101A A107G | ≤ -4.2
77 | A49C C51A C72A | ≤ -4.2
78 | A49C C63U G70U U77C A115G | ≤ -4.2
79 | A47G A66C U77G U134C | ≤ -4.2
80 | G48C G84A G126A G143C A150C | ≤ -4.2
81 | G48U C96G | -1.13
82 | A49C C51A G86C C99U C149G | ≤ -4.2
83 | G46A G67A G84U A97G C99U C116U | ≤ -4.2
84 | U45G G46C G70A U109C U151C | ≤ -4.2
85 | G48A G59A G86A U104G A110U | ≤ -4.2
86 | A47C G58U C99A U148G | ≤ -4.2
87 | A47G U53A | -0.375
88 | A47C U82A | -0.366
89 | U45A G71C U102G C116G | ≤ -4.2
90 | G48A C57A G92A | -3.32
91 | A47U G88C U102A G133A | ≤ -4.2
92 | A47U U56C C69G G84A A113U C123U | ≤ -4.2
93 | G46A C63U G86A A91U U101G A106U | ≤ -4.2
94 | A47G C51A A64G G86A A89C A110G | ≤ -4.2
95 | A47G G84A G88U A98U A106U C114U G136U U148A | ≤ -4.2
96 | G46A C75G G86U C87G C96A C114A A137U | ≤ -4.2

Row | Variant | polymerase ribozyme fitness (log ratio)
97 | G48C G70A C75G C87G C93G G140A G152A | -4.11
98 | A47C G48A U61A A98U C123A U139A U144G U148A | ≤ -4.2
99 | A47G C69A G84C G100A A147C | ≤ -4.2
100 | U45G U101G C114A | ≤ -4.2
101 | A47U C96U A107G A137G | ≤ -4.2
102 | A49C C57U G81A G84U C99A G100U A138C | ≤ -4.2
103 | A47C C96U A107U | -3.57
104 | G46C U144C | -1.66
105 | A47C G81C G88C C103G | ≤ -4.2
106 | A47C C105G A137U | ≤ -4.2
107 | G46A U130A | ≤ -4.2
108 | A47U C87G U104G A122C G128A | ≤ -4.2
109 | A49C A52C C54A G74U C76G C125U | ≤ -4.2
110 | A47C A113C A137C | ≤ -4.2
111 | G48A G50A C54A C93G U104A | ≤ -4.2
112 | G48C G59C G68A A91G G100A | ≤ -4.2
113 | G48C A110C G141U U148G | ≤ -4.2
114 | G46A C93G C105U U109G G117C C125G G128C | ≤ -4.2
115 | A49C C54A A64C C87A | ≤ -4.2
116 | G48U U55A C99U | -2.23
117 | G46C A64G G88C C99G | ≤ -4.2
118 | A47G C108U G140U | ≤ -4.2
119 | A47C G62U C99G G143U | ≤ -4.2
120 | U45G C75G G83U | ≤ -4.2

Row | Variant | polymerase ribozyme fitness (log ratio)
121 | A47C C57U G67C C69A A91U C149U | ≤ -4.2
122 | A49C C87U | -4.01
123 | A47C G62A G70A U82A C85U G86A G152C | ≤ -4.2
124 | U45A G67A C85G C95G | ≤ -4.2
125 | G48C G84U C103G C108U U135C | ≤ -4.2
126 | G48U A73G A122C U146C | -0.965
127 | U45A G83U C95U | ≤ -4.2
128 | G48C C96U A110G | ≤ -4.2
129 | G46A G84C C132U | ≤ -4.2
130 | G48C C87A C105U U144A | ≤ -4.2
131 | A47C U56A C87A C93G A121U C132G G143A U144C | ≤ -4.2
132 | A47G U82G G86U A91U A98C U139C | ≤ -4.2
133 | A47G C63G G74C A120G | ≤ -4.2
134 | A47C C57A C93U U148G | ≤ -4.2
135 | A47G U78A G81U G86C U127G A138C | ≤ -4.2
136 | U45A G88C A113C U134A | ≤ -4.2
137 | A47G C85G U130G | ≤ -4.2
138 | A47G C57U C85G G88C C93U | ≤ -4.2
139 | A47C G126A | 0.0505
140 | A47C G50A C51A U56A C57A C93G A142C | ≤ -4.2
141 | A47U C76A G84A G94U C131U A142C G143C | ≤ -4.2
142 | A47C C103G A113C A137G | ≤ -4.2
143 | A47U U61A C75A C76U G88U | ≤ -4.2
144 | A47G C54A U61G C72U G94C C99U U102G | ≤ -4.2

Row | Variant | polymerase ribozyme fitness (log ratio)
145 | G48C C63U C79G C85U A98U C105U U111G | ≤ -4.2
146 | A47C G84C C93A | ≤ -4.2
147 | G48A U55G A142C | -2.84
148 | A47C G83U | -1.01
149 | U45G C87A C118G C149U | ≤ -4.2
150 | G46A G50A G58U G68A A91U | ≤ -4.2
151 | A47C C54U U55A U101C | 0.0498
152 | G46A U56G A91G U148A | ≤ -4.2
153 | G48A A60U A73U C96G A119U | ≤ -4.2
154 | G48A U102C A107G A110U | ≤ -4.2
155 | G48A A49G C54U U90G G92U C99U A121C U151A | ≤ -4.2
156 | A47G G48C G84U A121U A138C | ≤ -4.2
157 | U45G C51A C57A C72G A113G C114G U130G G133C | ≤ -4.2
158 | A47U G86C C95U A137G G141C | ≤ -4.2
159 | G48A U55A A120G G141U A150U | ≤ -4.2
160 | G48C C51U C85U C129A U145C | ≤ -4.2
161 | G46C C51G A52U U78G C93G C105G A110C U148G U151C | ≤ -4.2
162 | A47C C129G | -4.19
163 | G46U A52C A89U G94A G133C | ≤ -4.2
164 | U45A G65C C85U U139A | ≤ -4.2
165 | U45G A91U A107C | ≤ -4.2
166 | G48C U111G G141A | ≤ -4.2
167 | G48C G88U A89G U134A U135A | ≤ -4.2
